# Source: the RNAGym collection of RNA variant scans (doi:10.7554/elife.90254)
# Read counts are not given, so values of variants with three or more changes are uncertain.
# B1: LINE1-mini (parent)
# chain: GGCAGAGCUCAACACAGCGUGGCAAAGUGGCUGUGGCUAGACUGCC
# Variants of: B1
# Assay: self-cleavage, relative activity (ratio to wild type); higher = more cleavage; in vitro, sequencing; the parent is a self-cleaving ribozyme
row,Variant,self-cleavage
1,GGCAGAGGUCAACACAGCGUCGCAAAGCGGCCGUGGCUAGACUGCC,0.03
2,GGCAGAGUUCAACUCAGCGUGGCAAAGUGGCUGUGGCUGGACUGCC,0.04
3,GGCAGAGGGCAACACAGAGUGGCAAAGUGGCUGUGGAUAGACUGCC,0.03
4,GGCAGAGUUCAACGCCGCGUGGCAAAGUGGCGGUGGCUAGACUGCC,0
5,GGCAGAGUUCAACCCAGCGUUGCAAAGUGGCUGUGACUAGACUGCC,0.5
6,GGCAGAGUUCUACACAGCGUGGCAAAGUGGCUGUGGCUAGACUGGC,0.02
7,GGCAGAGGACAACACAGCGUGUCAAAGUGGCUGUGGCUAGACUGCC,0.08
8,GGCAGAGGUCAACACAGCGUGGCAAAGUGGCCAGGGCUAGACUGCC,0.14
9,GGCAGAGGUCAACACAGCGUGGCAAAGUGGCUAUGGCUAGCCUGCC,0.08
10,GGCAGAGUUCAGCACAGCGUGGCAAAGUGGCUGUGGCUAGACUGUC,0.04
11,GGCAGAGGUCAACACAGCGUGGCAAAGUGGCUGUGGCUAUAUUGCC,0.1
12,GGCAGAGGUCAACACAGCGUGGCAAAGUGGCUGUGUCUAGACUGUC,0.07
13,GGCAGAGGUCAACACAGAGUGGCUAAGUGGCUGUGGCUAGCCUGCA,0.11
14,GGCAGAGGACAACACAGCGUGGCAAAGUGGCUGUGGCUAGACUGCA,0.13
15,GGCAGAGGUCAACACAGCGUGGCAAAGUGGCUGUGGCGAAACUGCC,0.03
16,GGCAGAGGUCAACACAGUGUGGCAAAGAGGCGGUGGCUAGACUGCC,0.08
17,GGCAGAGGCCAACACAGCGUGGCAAAGUGGCUGUGGCUUGACUGCC,0.03
18,GGCAGAGGUCAACACAGCGUGGCAAAGUGGCUGUGACUAAACUGUC,0.12
19,GGCAGAGUUCAGCACAUCGUGGCAAAGUGGCUUUGGCAAGACUGCC,0.57

row,Variant,self-cleavage
1,GGCAGAGGUCAACACAGCGUGGCAAAGAGGCUGUGACUAGACUGCC,0.19
2,GGCAGAGGUCAACACAGCGUUGCAAAGUGGCUGUGGCUAGGCUGCC,0.05
3,GGCAGAGGUCAACACAGCGCGGCAAAGCGGCUGUGGCUUGACUGCC,0.02
4,GGCAGAGGUCAACACAGCCUGGUAAAGGGGCUUUGGCUAAACUGCU,0.01
5,GGCAGAGUUCUGCACAGCGUGGCAAAUUGGCUGUGGCCAGACUGCC,0.01
6,GGCAGAGUUCAACGCAGCGUGGCAAAGUGACUGUGGCUAGACUGCC,0.26
7,GGCAGAGGGCAACAAAGCGUGGCAAAGUGGCUCUGGCUAGCAUGCC,0.02
8,GGCAGAGGUCAACACAGAGUGGCAAAGUAGCGGUGGCUAGACUGCC,0.03
9,GGCAGAGGACAACACAGCGUGUCAAAGUGGCUGUGGGUAGACUGCC,0.04
10,GGCAGAGGUCAACACAGCGUGUCAAAGUGGAUGUGGCUAGACUGCC,0.13
11,GGCAGAGUUCAUCACAGCGUGGCAAAGUGGCUGACUCUAGACUGCC,0.06
12,GGCAGAGGUCAACACAGCGUGGCAAAGUGGCUGUUGCUAGCCUGCC,0.06
13,GGCAGAGGUCAACACAGCGUGGCAAAGUGGCUGUGGCCAAACUGCC,0.06
14,GGCAGAGGUCAACACAGCGUGGCAAAUUAGCUGUGGCUAGACUGCC,0.03
15,GGCAGAGGCCAACACAGCUUGGCAAAGUGGCUGUGGCUAGACUGCU,0.02
16,GGCAGAGGUCAACACAGAGUGGCUAAGUGGCUGUGGUUAGGCUGCC,0.02
17,GGCAGAGGUCAACACAACGUGGCAAAGUGGCUGUGGCUAGUCUGCC,0.05
18,GGCAGAGUUCUACACAGCGCGGCAAAGUGGCUGUGACUAGACUGCC,0
19,GGCAGAGGUCAACACAGCGUGGCAAAUUGGCUGUGGCUAGACUGUC,0.06

row,Variant,self-cleavage
1,GGCAGAGGGCAACCCCGCGUGGCAAAGUGGCUGUGGCUCGUCUGCC,0.01
2,GGCAGAGGUCAACACAGCGUUGCAAAGUUGCUGGGGCUAGACUGCU,0.01
3,GGCAGAGUUCUACACAGCGUGGCAAAGUGGCUGUGGCAAGGCUGCC,0.02
4,GGCAGAGGUCAACACAGCGUGGCAAAGUGGCUGUGGCUAGAGUCCC,0.03
5,GGCAGAGGUCAACACAGCGUAGCCAAGUGGCUGUGGCUAGACUACU,0.02
6,GGCAGAGGUCAACACAACGUGGCAAAGUGGCUGUGGUUAGACUGCC,0.04
7,GGCAGAGUUCAACGCAGCGUGGUAAAGUGGCUGGGUCUAUACUGCG,0.07
8,GGCAGAGUUCGACACAGCGUGGCAAAGUGGCUGUGGCUUGCCUGCC,0.01
9,GGCAGAGGUCAACACAGCGUUGCAAAGUGGCUGUAGCUAGACUGUC,0.06
10,GGCAGAGGUCAACAUAACGUGGCAAAGUGGCUGUGGCUAGACUGGC,0.11
11,GGCAGAGGUCAACACAGCAUGGCAAAGUGGCUGUGGCUAGACAGCC,0.01
12,GGCAGAGGUCAACACAGUGUGGGAAAGUGCCUGUGGCUAGACUGGC,0.02
13,GGCAGAGGACAACACAGCGGGGCAAAGUGGCUGAGGCUAGACUGUC,0.4
14,GGCAGAGGUCAACACAGCGUGGCAAAGCGGCUGUGGCUAGACUGUU,0.01
15,GGCAGAGGUCAACACAGCGUGGCAAAGUGGCAGUGCCUCGACUGCC,0.06
16,GGCAGAGGUCAACACAGCGUGGCAAAGUGGCUGUGCCUAGCCUGCC,0.08
17,GGCAGAGUUCGUCACAGCUUGGCAAAGUGGCUGUGGCUAGACUGCC,0.02
18,GGCAGAGGUCAACACAGCUUGUCAAAGUGGCUGUGCCUAGACUGCC,0.07
